Reference: patent publication US20250295648A1 (priority 2024, published 2025)

Test system: patients with moderate to severe L-DOPA-induced dyskinesia (LID) in Parkinson's disease
Test: Phase 2a study: ECG, vital signs, safety laboratory, physical examination, C-SSRS
Type: in vivo

## Cc1ccc(CNCC2(F)CCN(C(=O)c3ccc(F)c(Cl)c3)CC2)nc1 [NLX-112, (3-chloro-4-fluoro-phenyl)-[4-fluoro-4-{[(5-methyl-pyridin-2-ylmethyl)-amino]-methyl}piperidin-1-yl]methanone]
N=18
  abnormal vital signs assessed as clinically significant: patients n: 2
Any post-baseline visit
  ECG: HR, PR, QRS, QT, QTc measures: no changes
In vivo
  suicidal ideation/behavior (C-SSRS): no indication of increased suicidal ideation/behavior
  vital signs: HR, BP, body temperature: no changes
Laboratory assessments
  clinical chemistry, hematology, urinalysis, coagulation parameters: no clinically significant changes
One or more occasions, N=18
  abnormal vital signs assessed as not clinically significant: patients %: 67%
  abnormal vital signs assessed as not clinically significant: patients n: 12
Out of 18 patients
  occurrences of orthostatic hypotension on one or more occasions: patients n: 13
